# Experimental data as given in the antibiotic and cytotoxicity screens of Wong et al. (2023).
# Some of the results follow.
# Columns and labels:
# HSkMC = human skeletal muscle cells; experiment: cytotoxicity call (relative viability < 0.9); details: 10 µM
# HepG2 = experiment: cytotoxicity call (relative viability < 0.9); details: 10 µM
# S. aureus RN4220 = experiment: growth inhibition call (relative growth <= 0.2); details: 50 µM
Structure (SMILES),cytotoxicity call (HSkMC),cytotoxicity call (HepG2),growth inhibition call (S. aureus RN4220)
Cc1noc(C)c1NC(=O)Nc1ccc2c(c1)C(=O)N([C@@H](C)CO)C[C@@H](C)[C@H](CN(C)S(=O)(=O)c1ccccc1)O2,inactive,inactive,inactive
C[C@@H](NC(=O)C[C@H]1C=C[C@@H](NC(=O)CN2CCOCC2)[C@@H](CO)O1)c1ccccc1,inactive,inactive,inactive
O=C(C[C@H]1CC[C@H]2[C@@H](COC[C@H](O)CN2C(=O)c2ccccc2F)O1)N1CCN(c2ccccc2)CC1,inactive,inactive,inactive
CC(=O)OC1CC2CCC1(C)C2(C)C (configuration not stated),inactive,inactive,inactive
COc1ccc([C@H]([C@H](Cc2ccccc2)OC(C)=O)N(C[C@H](/C=C/c2ccccc2)OC(C)=O)[C@@H](Cc2ccccc2)C(OC)OC)cc1,inactive,inactive,inactive
COc1ccc2c3c(n(c2c1)C)[C@H](CO)N(C[C@]13CCN(CC1)C(=O)c1ccncc1)C(=O)C1CCOCC1,inactive,inactive,inactive
COc1cccc(S(=O)(=O)N(C)C[C@H]2OCc3cnnn3CCCC(=O)N([C@@H](C)CO)C[C@@H]2C)c1,inactive,inactive,inactive
C[C@@H]1CN([C@H](C)CO)C(=O)c2cc(NC(=O)NC3CCCCC3)ccc2O[C@H]1CN(C)C(=O)Nc1cccc2ccccc12,inactive,inactive,inactive
C[C@H](CO)N1C[C@H](C)[C@H](CN(C)C(=O)Nc2cccc(C(F)(F)F)c2)OCc2cnnn2CCCC1=O,inactive,inactive,active
C[C@H]1CN([C@@H](C)CO)C(=O)Cc2cc(NS(=O)(=O)c3ccccc3)ccc2O[C@@H]1CN(C)Cc1ccc(-c2ccccc2)cc1,active,inactive,inactive
CO[C@@H](CN(C)S(=O)(=O)c1ccc(F)cc1)[C@@H](C)CN([C@@H](C)CO)S(=O)(=O)c1cccc(Cl)c1,inactive,inactive,inactive
C[N+](C)(C)CCCCNC(=O)[C@H]1C[C@H]2C(=O)N[C@@H](CCCC[N+](C)(C)C)C(=O)N2[C@H]1c1ccc(O)cc1,inactive,inactive,inactive
C[C@H](CO)N1C[C@H](C)[C@@H](CN(C)C(=O)Cc2ccccn2)Oc2ncc(C#CC3CCCC3)cc2C1=O,inactive,inactive,inactive
C[C@@H]1CN([C@H](C)CO)C(=O)c2cc(NC(=O)Nc3cccc4ccccc34)ccc2O[C@H]1CN(C)C(=O)NC1CCCCC1,active,inactive,inactive
